# Experimental data taken from PubChem BioAssay AID1508642 (National Center for Advancing Translational Sciences (NCATS), 2021).
# Out of some 43,000 compounds screened, about 200 (0.47%) were called active. Not shown: some 12% with an inconclusive outcome. Calls follow the shape of the dose curve; as a rule, active = well fitted cell-killing curve with a large enough effect; inconclusive = small, poorly fitted or top-dose-only effect, or effect the other way; inactive = flat fitted curve, though single readings scatter. The list shows a part of the results.
# Assay: Cell viability qHTS assay in S16 Pmp22-F2sN cells; also: nearly all actives have a fitted effect of over 65% in size
# Conditions: S16 Pmp22-F2sN Schwann cells (luciferase reporters placed in the Pmp22 gene) viability, CellTiter-Glo, 24 h; series mostly up to 57.5 µM; activity change, negative = cytotoxicity: at the top concentration
# Summary of the method: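 CellTiter-Glo counter-screen, qHTS, 1536-well. Cells: S16(c9) Pmp22-F2sN, 500-1,000/well in DMEM + 10% FBS. Cpd 23 nL pin transfer, 24 h, 37C/5% CO2. Read: luminescence, CCD imager.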
# % is scaled to controls: 0 for no effect and ±100 for the full control effect.
row,Compound,"activity change, negative = cytotoxicity"
1,COc1ccc(Nc2oc(/C=C/c3ccc(F)cc3)nc2C#N)cc1,inactive: 1.63%
2,COc1ccccc1N1CCN(C(=O)CCSCc2ccccc2F)CC1,inactive: -1.56%
3,Cc1oc(-c2ccccc2F)nc1Cn1c(SCc2ccccc2F)nc2ccncc21,inactive: -17.2%
4,Cc1ccccc1OCc1nc2c3cnn(-c4ccccc4Br)c3ncn2n1,inactive: 6.63%
5,COc1ccc(CNC(=O)c2cc3c(=O)n(Cc4cccs4)ccc3nc2C)cc1,inactive: 0.626%
6,COc1ccc(-c2nc3ccccc3o2)cc1NC(=O)c1ccc(N2CCC(C)CC2)c([N+](=O)[O-])c1,inactive: 0.734%
7,Cc1ccc2nc(N3CCN(C(=O)C4COc5ccccc5O4)CC3)sc2c1 (stereo not given),inactive: -11.9%
8,Cc1ccnc(NS(=O)(=O)c2ccc(NC(=O)c3cc(=O)c4ccc(C)c(C)c4o3)cc2)n1,inactive: 19.3%
9,Cc1ccc(C(=O)c2cn(Cc3ccc(F)cc3)c3nc(C)ccc3c2=O)cc1,inactive: -0.569%
10,CCOC(=O)c1cc(-c2ccc(C)cc2)n(CC(=O)Nc2cccc(C(C)=O)c2)c1C,inactive: 14.3%
11,CCOC(=O)c1sc(NC(=O)c2nc(SCC)ncc2Cl)c(C(=O)OCC)c1C,inactive: -3.36%
12,CN(C)CCNC(=O)Cc1ccc(NC(=O)N2CCCCc3ccccc32)cc1,inactive: 15.8%
13,CCCCn1c(CCNC(=O)c2ccc(F)cc2)nc2ccccc21,inactive: -5.91%
14,COc1ccccc1CNc1nc(-c2ccco2)nn1C(=O)c1ccccc1[N+](=O)[O-],inactive: 0.242%
15,COc1cccc(CNC(=O)Cn2cc3c(n2)-c2c(oc(C(=O)N4CCOCC4)c2C)CC3)c1,inactive: -12.1%
16,COC(=O)c1ccccc1NC(=O)CSc1nc2sc3c(c2c(=O)[nH]1)CCCC3,inactive: -0.406%
17,O=C(CN1C(=O)C2CCCCN2c2ccc(C(=O)N3CCCC3)cc21)NCc1ccccc1 (stereo not given),inactive: 3.93%
18,COCCCNC(=O)Cn1c(=O)n(-c2cccc(C)c2)c(=O)c2c3c(sc21)CN(C(C)=O)CC3,inactive: 13.1%
19,CCc1cccc(C)c1NC(=O)C1CCCN(S(=O)(=O)c2cccc3nsnc23)C1 (stereo not given),inactive: 0.538%
20,CCN(C(=O)CSc1nnc(-c2ccc(Cl)cc2)o1)c1ccccc1,inactive: -9.23%

row,Compound,"activity change, negative = cytotoxicity"
1,CN(C)c1ccc(CNc2nc(-c3ccco3)nn2S(=O)(=O)c2ccc(Cl)cc2)cc1,inactive: 16.7%
2,COc1ccc(-n2c(-c3ccc(F)cc3)cn3c4c(=O)n(C)c(=O)n(C)c4nc23)cc1,inactive: 6.13%
3,CCOc1ccc2ncc3c(-c4ccccc4)nn(CC(=O)Nc4cccc(F)c4)c3c2c1,inactive: 1.18%
4,O=C(Cn1c(=O)oc2ccccc21)NCc1ccccc1Cl,inactive: 9.29%
5,O=C(CSc1nc2c(c(=O)[nH]1)CCCC2)Nc1cccc(O)c1,inactive: -5.72%
6,COc1cc2[nH]c(=O)n(CCCC(=O)NCc3ccccc3Cl)c(=O)c2cc1OC,inactive: -2.35%
7,COCCCNC(=O)C1CCN(c2nnc(-n3cccc3CNc3ccc(C)cc3)s2)CC1,inactive: -1.63%
8,Cc1cc(OCCn2c(C3CC(=O)N(Cc4ccc(F)cc4)C3)nc3ccccc32)ccc1Cl (stereo not given),inactive: -2.23%
9,COc1ccccc1CNC(=O)Cn1c(=O)oc2ccccc21,inactive: 1.92%
10,CCOc1ccc(CCNC(=O)c2ccc(Cn3c(=O)c4cccn4c4cccnc43)cc2)cc1,inactive: 1.19%
11,O=C(c1ccc2c(c1)N(Cc1ccccc1F)C(=O)c1ccccc1S2(=O)=O)N1CCCCCC1,inactive: 16.6%
12,CCCNC(=O)c1cc2n(n1)CCCN(Cc1ccc(F)cc1)C2=O,inactive: -1.09%
13,O=C(CSCc1nc2cccnc2n1C1CCCCC1)NCc1cccc(Br)c1,inactive: -6.96%
14,O=C(OCc1ccccc1)c1ccc(-c2nnn(Cc3ccccc3F)n2)cc1,inactive: 6.2%
15,Cc1ccc2scc(N3CCN(c4ccccc4)CC3)c(=O)c2c1,inactive: 13.9%
16,CCOc1ccc(CCNC(=O)c2ccc3[nH]c(C)c(C)c3c2)cc1,inactive: -16.3%
17,O=C(C1COc2ccccc2O1)N(Cc1cccnc1)c1nc2ccc(F)cc2s1 (stereo not given),inactive: 11%
18,CCOC(=O)c1sc(N2C(=O)c3oc4ccc(F)cc4c(=O)c3C2c2cccc(OC)c2)nc1C (stereo not given),inactive: 1.67%
19,CCN(C(=O)Cn1c(SCc2ccccc2F)nc2cccnc21)c1ccccc1,inactive: -1.74%
20,Cc1ccc(C)c(NC(=O)C2CCCN(S(=O)(=O)c3cccc4nsnc34)C2)c1 (stereo not given),inactive: -11.1%

row,Compound,"activity change, negative = cytotoxicity"
1,CCCCC(=O)NC1(C(F)(F)F)C(=O)Nc2c1c(=O)[nH]c(=O)n2-c1ccc(F)cc1 (stereo not given),inactive: 0.271%
2,COc1cc(Cl)c(NS(=O)(=O)c2ccc3[nH]c(=O)ccc3c2)c(OC)c1,inactive: 3.11%
3,CCC1CCCCN1C(=O)Cn1c(=O)n(-c2ccccc2C(F)(F)F)c(=O)c2c(C)c(C(=O)N(C)C)sc21 (stereo not given),inactive: 2.15%
4,COc1ccccc1N1CCN(C(c2ccccc2)c2nnc(-c3ccccc3Cl)o2)CC1 (stereo not given),inactive: -5.38%
5,Cc1ccc(NC(=O)Cn2c(=O)n(Cc3nc(-c4ccccc4)no3)c(=O)c3cc4c(cc32)OCO4)cc1C,inactive: -6.86%
6,CCOc1ccc(OCC)c(NC(=O)CN(c2ccc(C)cc2)S(=O)(=O)c2c(C)n[nH]c2C)c1,inactive: 9.54%
7,CCOc1ccc(NC(=O)C(CC)n2nc(-c3ccc(C)c(C)c3)ccc2=O)cc1 (stereo not given),inactive: 0.585%
8,COc1ccc(C2CC(=O)c3c([nH]c(C(=O)OC4CCCC4)c3C)C2)cc1OC (stereo not given),inactive: 3.94%
9,O=C(CN1C(=O)COc2ccc(S(=O)(=O)Nc3ccccc3)cc21)NCc1ccccc1Cl,inactive: 3.86%
10,CCOC(=O)c1c(S(=O)(=O)N2CCC(C(=O)Nc3cccc(C#N)c3)CC2)c(C)n(C)c1C,inactive: -3.29%
11,CCN(CC)S(=O)(=O)c1ccc(C(=O)NC2CC(=O)N(c3ccc4c(c3)OCCO4)C2)cc1 (stereo not given),inactive: 14.4%
12,COc1ccc(CCNc2nc(SCc3ccccc3Cl)nc3ccccc23)cc1OC,inactive: 0.535%
13,COc1ccc(NC(=O)Cn2c(=O)n(CCc3ccccc3)c(=O)c3sc4ccccc4c32)cc1,inactive: 2.49%
14,O=S1(=O)c2ccccc2N(Cc2ccccc2Cl)c2ccccc21,inactive: -0.866%
15,COc1cccc(NC(=O)C(=O)NCCc2sc(-c3cccc(C)c3)nc2C)c1,inactive: -3.9%
16,CCC1CN(C(=O)NCc2cccc(OC)c2)c2ccccc2O1 (stereo not given),inactive: 1.34%
17,COc1ccc(-c2[nH]c(-c3ccccc3)nc2SCC(=O)NC2CCCC2)cc1,inactive: -1.94%
18,COc1ccc(CCNC(=O)c2cc3c(=O)n(C)c4cc(Cl)ccc4c3s2)cc1OC,inactive: 16.7%
19,Cc1ccc(-c2ccc(=O)n(CC(=O)NC(C)c3ccccc3)n2)cc1 (stereo not given),inactive: -3.4%
20,COc1ccc(CNC(=O)C2(c3cccs3)CCOCC2)cc1,inactive: 15%
